# Among all 410,000 compounds or so, about 5,000 (1.2%) were called active. The shares of active, inactive and inconclusive entries below differ from those in the screen. Calls follow the shape of the dose curve; as a rule, active = well fitted inhibition curve with a large enough effect; inconclusive = small, poorly fitted or top-dose-only effect; inactive = no such curve, though single readings can be large or run the other way. Where the call is inconclusive, the potency comes from a doubtful curve fit.
# Assay: qHTS for Inhibitors of TGF-b; also: nearly all actives have a fitted effect of over 65% in size
# Details: HepG2 CAGA-GFP TGF-b/SMAD3 reporter, GFP fluorescence, 18 h, TGF-beta stimulated, 500 pg/mL final; series mostly up to 46.1 µM; activity, negative = inhibition: at the top concentration
# Procedure, shortened: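 TGF-beta reporter screen: HEPG2 CAGA-GFP, 1% FBS, 500 pg/mL TGF-beta final, 18 h; per-cell GFP summed per well; curves fitted and categorized by class.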
# % is scaled to controls: 0 for no effect and ±100 for the full control effect; potency is read from the fitted curve at half-maximal effect; tags tell the direction and shape of the fitted curve.
SMILES,Potency,"activity, negative = inhibition"
COc1cccc(NC(CNS(=O)(=O)c2ccc(C)cc2)c2ccccc2)c1 (configuration not stated),active: 14.1 µM,
COc1ccc(OC)c(/C=C/C(=O)c2ccc3c(c2)OCCO3)c1,"inconclusive: 35.5 µM [inhibitor, single point]",
CCN1C(=O)c2ccccc2Sc2ccc(NC(=O)c3ccc(C)c(F)c3)cc21,,inactive: -20.6%
COc1cc(OC)c(/C=C/c2ccc3ccccc3n2)c(OC)c1,"inconclusive: 35.5 µM [inhibitor, single point]",
COc1ccccc1/C(C)=N/NC(=S)NCc1ccccc1,"inconclusive: 12.6 µM [inhibitor, partial curve, poor fit]",
O=C(Cn1nnc2sc3c(c2c1=O)CCCC3)Nc1ccc(F)c(Cl)c1,"inconclusive: 25.1 µM [inhibitor, single point]",
CCCCNC(=S)N1CCN(Cc2ccc3c(c2)OCO3)CC1,"inconclusive: 4.47 µM [inhibitor, single point]",
Cc1ccccc1-n1c(=O)n(Cc2ccccc2)c(=O)c2[nH]cnc21,,inactive: 3.58%
Cc1cc(/C=C2\SC(=O)N(C)C2=O)c(C)n1-c1ccc(S(N)(=O)=O)cc1,,inactive: 9.17%
C/C(CCc1ccc2c(c1)OCO2)=N\NC(=S)NC(C)C,"inconclusive: 14.1 µM [inhibitor, single point]",
O=C(NCc1nc2ccccc2[nH]1)C1=C[C@H](c2ccc(C(F)(F)F)cc2)C[C@H](OCCCCO)O1,"inconclusive: 35.5 µM [inhibitor, single point]",
N#CC(C#N)=c1ccc2c(c1)NC1(CCCCC1)N=2,"inconclusive: 17.8 µM [inhibitor, single point]",
COCC(=O)N1CCc2cc(OC)c(OC)cc2C1COc1ccc2c(C)cc(=O)oc2c1 (configuration not stated),"inconclusive: 8.91 µM [inhibitor, partial curve]",
CC(C)COc1ccc(C(=O)Nc2cc(S(=O)(=O)N3CCOCC3)ccc2N2CCCC2)cc1,,inactive: -17%
Cc1ccc(C)c(N2CCN(C(=O)c3ccc4c(Cl)c5c(nc4c3)CCCC5)CC2)c1,"inconclusive: 8.91 µM [inhibitor, partial curve]",
CCCC(=O)N1CCN(c2ccc(NC(=O)C(C)(C)C)cc2Cl)CC1,,inactive: 5.72%
Fc1ccc2c(c1)Sc1ccc(Cl)cc1CC2N1CCN(CCC2OCCO2)CC1 (configuration not stated),"inconclusive: 20 µM [inhibitor, single point]",
CC(/C=N/Nc1ccc2nncn2n1)=C\c1ccccc1,"inconclusive: 22.4 µM [inhibitor, partial curve, poor fit]",
Cc1cc2ccccn2c1C(=O)c1ccc(NN)c([N+](=O)[O-])c1,"inconclusive: 12.6 µM [inhibitor, partial curve, poor fit]",
CC1(C)Cc2c(C#N)c(NCc3ccco3)nc(-c3ccco3)c2CO1,,inactive: -8.98%
O=C(N/N=C/c1cccc2ccccc12)c1n[nH]c2c1CCCC2,,inactive: -18.4%
COc1cc(-c2noc(-c3ccc(NCCc4ccccc4)c([N+](=O)[O-])c3)n2)cc(OC)c1OC,"inconclusive: 0.1 µM [inhibitor, full curve, poor fit]",
COC(=O)/C=C1\S/C(=N/N=C/c2ccccc2)NC1=O,"inconclusive: 35.5 µM [inhibitor, single point]",

SMILES,Potency,"activity, negative = inhibition"
CN(Cc1c(C(=O)N/N=C/c2cccc(Cl)c2)nnn1-c1nonc1N)c1ccccc1,"inconclusive: 35.5 µM [inhibitor, single point]",
N#Cc1nc(N)nc(N2CCCCC2)n1,"inconclusive: 20 µM [inhibitor, single point]",
O=[N+]([O-])c1ccc2[nH]cc(S(=O)(=O)N3CCN(c4cccc(Cl)c4)CC3)c2c1,"inconclusive: 25.1 µM [inhibitor, single point]",
COc1ccc(-c2cccc([C@H]3[C@@H]4C=CCC[C@@]4(C)C(=O)N3Cc3ccccc3)c2)cc1,"inconclusive: 35.5 µM [inhibitor, single point]",
C/C(=N\NC(=O)c1cc(C2CC2)nc2ccccc12)c1ccc(O)cc1O,"inconclusive: 0.251 µM [inhibitor, full curve, poor fit]",
COc1ccc(C(=O)C(C)OC(=O)CN2C(=O)c3ccccc3C2=O)cc1 (configuration not stated),,inactive: 0%
O=C(CSC1=NS(=O)(=O)c2cc(F)ccc2N1)Nc1ccc(F)cc1,"inconclusive: 2.82 µM [inhibitor, single point]",
CC(C)(C)c1cc(NC(=O)c2cc(F)c(F)c(F)c2F)no1,,inactive: 6.63%
CC(NS(=O)(=O)OCC(Cl)(Cl)Cl)c1ccc(C(C)(C)C)cc1 (configuration not stated),"inconclusive: 17.8 µM [inhibitor, partial curve, poor fit]",
CN(C)c1ccc(/C=C/c2sc3ccccc3[n+]2Cc2ccccc2)cc1,"inconclusive: 14.1 µM [inhibitor, partial curve, poor fit]",
O=C(CN1c2cccc3cccc(c23)S1(=O)=O)Nc1ccc(F)c(F)c1F,,inactive: -3.35%
Cn1cnc([N+](=O)[O-])c1S(=O)(=O)c1cccc(Cl)c1,"inconclusive: 17.8 µM [inhibitor, partial curve, poor fit]",
COc1ccc(N2CCN(C(c3ccccc3)c3nnc(-c4ccccc4Cl)o3)CC2)cc1 (configuration not stated),"inconclusive: 15.8 µM [inhibitor, single point]",
COc1ccc(CC(=O)NC(c2ccccc2)c2ccc(C)cc2)c(OC)c1 (configuration not stated),,inactive: -27.6%
Cc1cc(C(=O)OC(C(=O)Nc2cccc(C(F)(F)F)c2)c2ccccc2)c(C)o1 (configuration not stated),"inconclusive: 35.5 µM [inhibitor, partial curve, poor fit]",
O=c1c2cnn(-c3ccccc3)c2nc(-c2ccco2)n1-c1ccccc1,,inactive: -7.07%
O=C(O)c1cccc(NC(=O)c2cn(-c3ccccc3)nc2-c2cccc(Br)c2)c1,"inconclusive: 35.5 µM [inhibitor, single point]",
Cc1cccn2c(CNCCCOc3cccnc3)c(C(=O)N3CCOCC3)nc12,"inconclusive: 3.98 µM [inhibitor, single point]",
CCOC(=O)CCCCCC(=O)Nc1ccc2c(c1)CC(=O)N([C@@H](C)CO)C[C@@H](C)[C@@H](CN(C)C(=O)Nc1ccc(C(F)(F)F)cc1)O2,"inconclusive: 12.6 µM [inhibitor, single point]",
CCC(C)c1ccccc1N1CC(C(=O)N2CCN(c3ccccc3)CC2)CC1=O (configuration not stated),,inactive: -20.3%
CN(C)CCCNc1ncnc2oc(-c3ccccc3)c(-c3ccccc3)c12,,inactive: -19.6%
Oc1ccc(N2CCN(c3ccnc4cc(Cl)ccc34)CC2)cc1,,inactive: 0.302%
Cc1cc(C)cc(N2C(N)=NC(N)=NC2c2ccccc2F)c1 (configuration not stated),,inactive: 0.718%

SMILES,Potency,"activity, negative = inhibition"
Cc1cc(C)cc(OCc2ccc(C(=O)NC3CCOC3=O)o2)c1 (configuration not stated),"inconclusive: 0.1 µM [inhibitor, full curve, poor fit]",
Cc1ccc(CN2CCSCC2)cc1,,inactive: 9.89%
O=C(CCN1CCc2ccccc2CC1)c1ccc2c(c1)OCCO2,"inconclusive: 6.31 µM [inhibitor, single point]",
CC(C)OCCCN1C(=O)c2[nH]nc(-c3ccccc3O)c2C1c1cccc(Cl)c1 (configuration not stated),"inconclusive: 17.8 µM [inhibitor, single point]",
COc1ccc(OC)c(S(=O)(=O)Oc2ccc(N)c3ccccc23)c1,"inconclusive: 11.2 µM [inhibitor, partial curve, poor fit]",
CCc1ccc2oc(-c3cc(NC(=O)c4cccs4)ccc3Cl)nc2c1,"inconclusive: 20 µM [inhibitor, single point]",
CC(C)Cn1c(N)c(C(=O)NCCN2CCOCC2)c2nc3ccccc3nc21,,inactive: 4.77%
CN(C)CCNc1ccc(CO)c2oc3ccc(O)cc3c(=O)c12,"inconclusive: 17.8 µM [inhibitor, single point]",
O=C(CCN1C(=O)/C(=C\c2cccc(Br)c2)SC1=S)NCCCN1CCOCC1,,inactive: -2.6%
COc1ccc(NCc2ccc([N+](=O)[O-])s2)cc1,,inactive: 0%
Cc1cc2cc(C(c3nnnn3Cc3ccccc3)N3CCc4ccccc43)c(=O)[nH]c2cc1C (configuration not stated),"inconclusive: 0.708 µM [inhibitor, full curve, poor fit]",
O=C(C1CCCN(Cc2ccccc2F)C1)N1CCCCC1 (configuration not stated),,inactive: 13.5%
COc1ccccc1-n1c(SCC(=O)Nc2cccc(S(N)(=O)=O)c2)nc2ccccc2c1=O,"inconclusive: 3.16 µM [inhibitor, single point]",
Cc1cccc(N2CCN(CCCNc3ncnc4onc(-c5ccc(F)cc5)c34)CC2C)c1 (configuration not stated),"inconclusive: 35.5 µM [inhibitor, single point]",
COc1ccc(C(=O)c2c(C)c3cc(C)ccc3n2CC(O)CN2CCOCC2)cc1 (configuration not stated),"inconclusive: 12.6 µM [inhibitor, partial curve, poor fit]",
CS(=O)(=O)N1CCC(Oc2cccc(C(=O)NCCCC3CCCC3)c2)CC1,"inconclusive: 12.6 µM [inhibitor, single point]",
Nc1nonc1OCCOCCOCCOc1nonc1N,,inactive: 13.7%
COc1cc(C(=O)Oc2cccc(Nc3ncnc4ccccc34)c2)cc(OC)c1OC,"inconclusive: 8.91 µM [inhibitor, partial curve, poor fit]",
C#CCOCCOCCOCCNc1nc(N2CCN(C(=O)C(Cc3cc4ccccc4[nH]3)n3cc(C(N)Cc4ccc(O)cc4)nn3)CC2)nc(N2CCN(C(=O)C(Cc3cc4ccccc4[nH]3)n3cc(C(N)Cc4ccc(O)cc4)nn3)CC2)n1 (configuration not stated),,inactive: -16%
COc1ccc(C(=O)C[n+]2ccccc2Cl)cc1,"inconclusive: 28.2 µM [inhibitor, single point]",
CC1CCN(S(=O)(=O)c2cc(C(=O)N3CCN(c4ccccc4)CC3)ccc2Br)CC1,,inactive: -15.7%
